Reference: PubChem BioAssay AID624417 (National Center for Advancing Translational Sciences (NCATS), 2012)
The whole screen tested about 410,000 compounds, of which about 6,400 (1.6%) were called active. Inconclusive results, whose numbers are uncertain, are shown with a selection of clear calls. Calls come from the whole dose curve; as a rule, active = well fitted inhibition curve with a large enough effect; inconclusive = small, poorly fitted or top-dose-only effect; inactive = no such curve, though single readings can be large or run the other way. A potency beside an inconclusive call is a rough fit, not a confirmed value.

Target: Glucagon-like peptide 1 receptor (Homo sapiens) (UniProt P43220)
Test: qHTS of GLP-1 Receptor Inverse Agonists (Inhibition Mode); note: nearly all actives have a fitted effect of over 55% in size
Conditions: HEK293 GLP-1R CRE-luciferase, luminescence, 24 h, GLP-1R form is constitutively active; activity change, negative = inhibition: at 38.3 µM (top of the series) unless noted
Outline: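 Stable HEK293 clone (constitutively active GLP-1R + cAMP-response luciferase); 200 cells/uL plated, 12 h pre-culture, compound 24 hr, 37 deg C/5% CO2; detection reagent 12 min RT; luminescence.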
% is set by controls: 0 for no effect and ±100 for the full control effect; potency is the fitted concentration of half-maximal effect; tags give direction and shape of the fitted curve.

Sequence of UniProt P43220 (P43220 whole entry, looked up): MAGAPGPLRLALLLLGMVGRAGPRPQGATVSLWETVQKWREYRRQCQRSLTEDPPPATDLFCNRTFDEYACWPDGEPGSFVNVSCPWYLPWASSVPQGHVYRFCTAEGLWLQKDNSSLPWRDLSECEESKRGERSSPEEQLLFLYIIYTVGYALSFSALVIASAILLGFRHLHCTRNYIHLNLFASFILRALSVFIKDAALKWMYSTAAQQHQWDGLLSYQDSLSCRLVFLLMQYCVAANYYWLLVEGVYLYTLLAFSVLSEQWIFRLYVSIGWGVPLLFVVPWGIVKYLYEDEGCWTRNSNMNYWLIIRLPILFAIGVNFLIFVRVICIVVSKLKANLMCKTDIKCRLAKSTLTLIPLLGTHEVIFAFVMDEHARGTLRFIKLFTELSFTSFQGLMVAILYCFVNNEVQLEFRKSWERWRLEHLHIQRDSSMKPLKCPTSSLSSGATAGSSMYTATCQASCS

Potency, inconclusive:
CCOC(=O)c1cc(-c2ccccc2)n(-c2cccc(C(=O)Nc3ccc(OC)cc3)c2)c1C 3.16 µM [inhibitor, partial curve, poor fit]
CC1(C)CC(=O)C2=C(C1)N(c1ccccc1C#N)C(N)=C(C#N)C2c1cccs1 (configuration not stated) 11.2 µM [inhibitor, partial curve, poor fit]
CCc1ccc(CN2CCCC(CNC(=O)c3cc(OC)cc(OC)c3)C2)cc1 (configuration not stated) 12.6 µM [inhibitor, single point]
COc1ccc(N2CCN(C(=O)c3cn(CC(C)C)c(=O)c4c3c3ccccc3n4C)CC2)cc1 8.91 µM [inhibitor, partial curve]
CCOc1ccc(NC(=S)N(CCOC)C2CCN(C(C)C)CC2)cc1 10 µM [inhibitor, single point]
CCO/N=C(/C)c1c(O)cc(C(C)(C)C)n(-c2ccccc2)c1=O 22.4 µM [inhibitor, partial curve, poor fit]
COc1cc(Cl)cc(/C=C/c2ccc3ccccc3n2)c1OC(C)=O 7.08 µM [inhibitor, partial curve, poor fit]
CN(c1ccccc1)S(=O)(=O)c1ccc(Cl)c(C(=O)OCC(=O)c2c(N)n(C)c(=O)n(C)c2=O)c1 12.6 µM [inhibitor, single point]
CC(C)(C)n1ncc2c(=O)n(Cc3ccc(Cl)cc3)cnc21 12.6 µM [inhibitor, single point]
Clc1ccccc1OCCNc1nc(NCC2CC2)nc2ccsc12 10 µM [inhibitor, partial curve]
CC1=NN(C(N)=S)C(=O)C1N=Nc1cccc(Cl)c1C (configuration not stated) 5.62 µM [inhibitor, full curve, poor fit]
O=C(CCNC(=O)c1ccco1)Nc1nc(-c2ccccc2)cs1 3.55 µM [inhibitor, partial curve]
COc1cc(CCC(=O)Nc2ccc(Br)c(C(F)(F)F)c2)cc(OC)c1OC 1.58 µM [inhibitor, partial curve, poor fit]
O=C(CSc1nnc(CCc2ccccc2)n1-c1ccc(Cl)cc1)c1ccccc1 10 µM [inhibitor, partial curve, poor fit]
O=C(CCCSc1ccccc1)Nc1nc(-c2ccco2)c(-c2ccco2)s1 6.31 µM [inhibitor, partial curve, poor fit]
COc1ccc(OC)c(NC(=O)c2cc(S(=O)(=O)NCCc3ccc(Cl)cc3)ccc2F)c1 14.1 µM [inhibitor, partial curve, poor fit]
Cc1ccc2c3c1C1(C(=O)N3C(C)(C)CC2C)C(C#N)=C(N)Oc2cc(O)ccc21 (configuration not stated) 8.91 µM [inhibitor, partial curve, poor fit]
CCN(CCCNS(=O)(=O)c1cc(-c2cc(C)no2)ccc1C)Cc1ccccc1 11.2 µM [inhibitor, partial curve, poor fit]
C1CCN(CCCNC2C3CC4CC(C3)CC2C4)C1 (configuration not stated) 2.51 µM [inhibitor, full curve]
Cc1ccc(S(=O)(=O)N2CCC(C(=O)N3CCC[C@H]3C(=O)NC3CCS(=O)(=O)C3)CC2)cc1 (some centres not stated) 31.6 µM [inhibitor, single point]
Cc1cccc(C)c1-c1ccc(CN2C(CC(C)C)C(=O)N(Cc3cn(CC4CCCCC4)nn3)CCS2(=O)=O)cc1 (configuration not stated) 12.6 µM [inhibitor, single point]
CCOc1ccc(NC(=O)c2ccc(F)c(S(=O)(=O)N(CC)Cc3ccccc3)c2)cc1 1.58 µM [inhibitor, full curve, poor fit]
O=C(CCC1N=C2c3ccccc3N=C(SCc3cccc(F)c3)N2C1=O)NCc1cccs1 (configuration not stated) 3.16 µM [inhibitor, full curve]
O=C(Cc1ccc(N2CCNC2=O)cc1)N1CCCC(Nc2cccc(F)c2)C1 (configuration not stated) 1.26 µM [inhibitor, full curve, poor fit]
COc1ccc(CN2CCN(C(=O)CC(C)C)CC2)c2ccccc12 7.94 µM [inhibitor, partial curve, poor fit]
O=C(Nc1cccc(C(F)(F)F)c1)c1cc(-c2ccc(F)cc2)on1 28.2 µM [inhibitor, single point]
COc1ccc2occ(C(=O)c3ccc(N=C(C)N(C)C)cc3)c2c1 7.94 µM [inhibitor, partial curve, poor fit]
O=C(N/N=C/c1ccc(F)cc1)c1cc(-c2ccco2)nc2ccccc12 10 µM [inhibitor, single point]
OCCN1CCN(c2ncnc3c2ncn3[C@H]2CN(Cc3ccc(-c4ccccc4)cc3)C[C@@H](CO)O2)CC1 7.08 µM [inhibitor, partial curve, poor fit]
COc1ccc(Cl)cc1NC(=O)CNc1ccc(F)cc1C 12.6 µM [inhibitor, single point]
CCCCOc1ccc(Br)cc1CSC(=N)N 10 µM [inhibitor, partial curve, poor fit]
CCN(c1ccc(OC)cc1)S(=O)(=O)N1CCCC(C(=O)NCc2cccc(C)c2)C1 (configuration not stated) 8.91 µM [inhibitor, partial curve, poor fit]
COc1ccc(-c2nnc(SCC(=O)NC3CCCC3)nc2-c2ccc(OC)c(OC)c2)cc1OC 28.2 µM [inhibitor, single point]
CC(=O)Oc1c(C(C)C)cc(N(C(C)=O)c2ccccc2)cc1C(C)C 10 µM [inhibitor, partial curve, poor fit]
O=C(NC(=S)Nc1nc2ccc(F)cc2s1)c1ccco1 3.55 µM [inhibitor, full curve, poor fit]
Cn1nc(C(=O)NCc2cccc(F)c2)cc1C(=O)NCc1cccc(F)c1 10 µM [inhibitor, single point]
CCOC(=O)c1nnc(-c2ccccc2)nc1Sc1ccccc1Cl 12.6 µM [inhibitor, single point]
Cc1cccc(CS(=O)(=O)Cc2ccc(C(=O)NCCc3ccccc3)o2)c1 8.91 µM [inhibitor, partial curve, poor fit]
CN(C)CCCn1c(N)c(C#N)c2nc(C#N)c(C#N)nc21 28.2 µM [inhibitor, single point]
CSc1nc(-c2ccccc2)nc(N2CCOCC2)c1C(C)=O 31.6 µM [inhibitor, single point]
Nc1nc2ccccc2n1C(=O)c1ccccc1 11.2 µM [inhibitor, partial curve, poor fit]
O=C(Nc1ccc2c(c1)OCO2)c1noc2c1CCCC2 10 µM [inhibitor, partial curve, poor fit]
CCOC(=O)/C(C(N)=NCC(C)C)=C(/O)c1ccccc1 22.4 µM [inhibitor, single point]
Fc1ccc(N2CCN(C3=Nc4cccc5cccc3c45)CC2)cc1 12.6 µM [inhibitor, partial curve, poor fit]
Cc1ccc(NC(=O)C2(c3ccccc3)CC2(Cl)Cl)cc1C (configuration not stated) 7.08 µM [inhibitor, partial curve, poor fit]
CCn1cc(C(=O)NCCCN2CCCC(C)C2)c(=O)c2cc(S(=O)(=O)N(C)C3CCCCC3)ccc21 (configuration not stated) 28.2 µM [inhibitor, single point]
CC1(C)OC(=O)C2=C(C[C@@H](C3CCCC3)O[C@H]2c2ccc(Cl)cc2)O1 8.91 µM [inhibitor, partial curve, poor fit]
O=C(CCc1c[nH]c2ccccc12)NCc1cccc(Cl)c1 11.2 µM [inhibitor, partial curve, poor fit]

Potency, active:
CCOC(=O)c1scc(-c2ccc(C)cc2)c1S(=O)(=O)N1CCN(c2ccccc2F)CC1 7.94 µM
Cc1ccc(-c2cn(-c3cccc(Cl)c3)c(S(=O)(=O)CC(=O)Nc3cccc(C)c3)n2)cc1 8.91 µM

Activity change, negative = inhibition, inactive:
COc1ccc(NC(=O)CSCC(=O)Nc2nnc(C3CC3)s2)cc1 0.4%
COc1ccc(-n2c(N)c(C(=O)NCc3ccco3)c3nc4ccccc4nc32)cc1OC 9.43%
CC(=O)C(Sc1nn(C)c(=S)s1)C(=O)Nc1ccccc1 (configuration not stated) 0%
CCOc1ccc(OCC)c(NC(=O)c2ccc(-c3ccccc3)s2)c1 14.7%
COc1cc(SC)ccc1C(=O)Nc1ccccc1C#N 24.9%
CCN1C(=O)C(NC(C)=O)c2cc(OC)ccc21 (configuration not stated) 2.91%
Cc1ccc(NC(=O)NCc2cccn2Cc2ccccc2)c(C)c1 7.02%
Cc1cccc(NC(=O)C(=O)NCC(c2cccnc2)N2CCc3ccccc3C2)c1C (configuration not stated) -7.69%
CC1=NN2C(=N)/C(=C\c3ccc(SCc4ccccc4)o3)C(=O)N=C2S1 -6.18%
COc1ccc(CCNc2nc(-c3ccc(OC)c(OC)c3)cc(C(F)(F)F)n2)cc1OC -21.5%
COCCOC(=O)C1=C(C)NC2=C(C(=O)CC(C)(C)C2)C1c1cccnc1 (configuration not stated) 2.27%
Cc1ccc(-c2ccc(C3=CC(=O)CC(C)(C)C3=O)cc2)cc1 4.58%
